In publication PMC5092051:
Numbering of substitutions follows the chain as printed. Read-outs that look alike come from different tables or passages of the source. No constants are given. Whether binding was seen depends on the method and setting. In cells and extracts the contact can be indirect. Some entries that bind do so weakly or less than the wild type. Sequences can lack the tags named with a protein.

By UniProt entry, the sequences of proteins in these tests, tags left out.
UniProt Q15370: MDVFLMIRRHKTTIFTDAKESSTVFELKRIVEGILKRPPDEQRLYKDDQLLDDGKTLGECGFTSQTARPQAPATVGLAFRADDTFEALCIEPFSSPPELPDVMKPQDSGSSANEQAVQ

Columns and labels:
[1] = biological target: T1, T7-tagged SOCS6 SH2 domain mutant R407K (mouse) (UniProt Q9JLY0); assay: co-IP; anti-T7 antibody immunoprecipitates of HeLa cells transiently expressing T7-tagged wildtype or mutant SOCS6; Western blotting with antibodies to Cas, ElonginB and T7
T1 sequence: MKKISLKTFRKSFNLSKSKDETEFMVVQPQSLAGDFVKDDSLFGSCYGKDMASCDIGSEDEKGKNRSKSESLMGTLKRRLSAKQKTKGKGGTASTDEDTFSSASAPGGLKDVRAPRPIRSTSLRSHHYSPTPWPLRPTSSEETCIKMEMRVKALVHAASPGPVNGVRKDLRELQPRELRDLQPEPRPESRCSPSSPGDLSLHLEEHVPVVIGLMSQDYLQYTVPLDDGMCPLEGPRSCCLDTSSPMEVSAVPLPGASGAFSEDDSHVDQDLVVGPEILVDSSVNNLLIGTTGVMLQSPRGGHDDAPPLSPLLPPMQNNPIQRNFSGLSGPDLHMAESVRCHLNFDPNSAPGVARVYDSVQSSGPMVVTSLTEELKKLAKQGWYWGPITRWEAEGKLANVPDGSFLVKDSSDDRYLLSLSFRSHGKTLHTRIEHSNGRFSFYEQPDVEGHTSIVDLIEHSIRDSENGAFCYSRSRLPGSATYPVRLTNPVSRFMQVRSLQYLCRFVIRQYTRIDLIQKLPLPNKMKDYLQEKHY

[2] = biological target: T2, T7-tagged wildtype SOCS6 (suppressor of cytokine signaling 6) (mouse) (UniProt Q9JLY0); assay: as above
T2 sequence: T1 sequence with K407R

[3] = biological target: T1, T7-tagged SOCS6 SH2 domain mutant R407K (mouse); assay: as above; remark: listed apart in the source
[4] = biological target: T2, T7-tagged wildtype SOCS6 (suppressor of cytokine signaling 6) (mouse); assay: as above; remark: listed apart in the source
[5] = biological target: T3, HA-tagged Cas (mouse) (UniProt Q61140); assay: co-IP; HeLa cells co-transfected with mCherry constructs, pSGTSrcYF and pCAGHACas; 2 mM pervanadate for 30 min; TX100 lysis buffer; immunoprecipitation with rabbit anti-HA and protein A beads; blots with anti-HA or anti-mCherry
T3 sequence: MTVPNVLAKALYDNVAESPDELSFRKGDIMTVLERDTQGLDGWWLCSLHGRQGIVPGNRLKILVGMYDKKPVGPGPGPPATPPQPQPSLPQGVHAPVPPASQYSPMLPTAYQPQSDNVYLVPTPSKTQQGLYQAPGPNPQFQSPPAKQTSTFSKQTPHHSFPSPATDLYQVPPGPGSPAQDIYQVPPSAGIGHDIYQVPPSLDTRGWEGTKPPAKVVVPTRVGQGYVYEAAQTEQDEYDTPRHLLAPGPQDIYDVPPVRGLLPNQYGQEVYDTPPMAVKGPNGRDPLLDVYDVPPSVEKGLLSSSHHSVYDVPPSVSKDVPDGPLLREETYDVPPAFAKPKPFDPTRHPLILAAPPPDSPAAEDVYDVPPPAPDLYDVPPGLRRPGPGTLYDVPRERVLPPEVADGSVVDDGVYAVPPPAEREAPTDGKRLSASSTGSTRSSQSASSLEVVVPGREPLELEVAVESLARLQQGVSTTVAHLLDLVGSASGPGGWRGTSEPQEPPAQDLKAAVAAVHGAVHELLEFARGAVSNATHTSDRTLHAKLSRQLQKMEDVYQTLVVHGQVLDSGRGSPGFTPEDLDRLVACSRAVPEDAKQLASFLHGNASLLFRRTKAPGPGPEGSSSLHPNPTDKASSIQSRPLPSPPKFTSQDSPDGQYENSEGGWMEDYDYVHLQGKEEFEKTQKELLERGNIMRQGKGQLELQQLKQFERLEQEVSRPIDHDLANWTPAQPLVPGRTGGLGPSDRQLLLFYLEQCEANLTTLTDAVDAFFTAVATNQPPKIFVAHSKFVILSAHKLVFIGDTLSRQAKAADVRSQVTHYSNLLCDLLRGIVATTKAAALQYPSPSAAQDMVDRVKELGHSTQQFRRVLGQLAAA

ElonginB, endogenous (from UniProt Q15370 1-118)
binding [1]: binds
binding [2]: binds

B1: Cas (Crk-associated substrate/p130Cas/BCAR1), endogenous (protein, UniProt P56945 1-870)
chain: MNHLNVLAKALYDNVAESPDELSFRKGDIMTVLEQDTQGLDGWWLCSLHGRQGIVPGNRLKILVGMYDKKPAGPGPGPPATPAQPQPGLHAPAPPASQYTPMLPNTYQPQPDSVYLVPTPSKAQQGLYQVPGPSPQFQSPPAKQTSTFSKQTPHHPFPSPATDLYQVPPGPGGPAQDIYQVPPSAGMGHDIYQVPPSMDTRSWEGTKPPAKVVVPTRVGQGYVYEAAQPEQDEYDIPRHLLAPGPQDIYDVPPVRGLLPSQYGQEVYDTPPMAVKGPNGRDPLLEVYDVPPSVEKGLPPSNHHAVYDVPPSVSKDVPDGPLLREETYDVPPAFAKAKPFDPARTPLVLAAPPPDSPPAEDVYDVPPPAPDLYDVPPGLRRPGPGTLYDVPRERVLPPEVADGGVVDSGVYAVPPPAEREAPAEGKRLSASSTGSTRSSQSASSLEVAGPGREPLELEVAVEALARLQQGVSATVAHLLDLAGSAGATGSWRSPSEPQEPLVQDLQAAVAAVQSAVHELLEFARSAVGNAAHTSDRALHAKLSRQLQKMEDVHQTLVAHGQALDAGRGGSGATLEDLDRLVACSRAVPEDAKQLASFLHGNASLLFRRTKATAPGPEGGGTLHPNPTDKTSSIQSRPLPSPPKFTSQDSPDGQYENSEGGWMEDYDYVHLQGKEEFEKTQKELLEKGSITRQGKSQLELQQLKQFERLEQEVSRPIDHDLANWTPAQPLAPGRTGGLGPSDRQLLLFYLEQCEANLTTLTNAVDAFFTAVATNQPPKIFVAHSKFVILSAHKLVFIGDTLSRQAKAADVRSQVTHYSNLLCDLLRGIVATTKAAALQYPSPSAAQDMVERVKELGHSTQQFRRVLGQLAAA
binding [3]: no binding
binding [4]: binds

B2: mCherry-SOCS6 (protein, UniProt Q9JLY0 1-533)
chain: T1 sequence with K407R
binding [5]: binds
